Viability index data for 68 compounds are collected here from the supplement of paper PMC4723716.

± gives the uncertainty stated by the source. Whole data set: some 9,900 compounds, median “viability index relative to DMSO control” near 1, cut for the lowest 2% near 0.85. The list shows a part of the results.

In the assay the test system is Plasmodium falciparum NF54 stage V gametocytes. Kind of assay: viability index relative to DMSO control (fraction); higher = less gametocyte killing. Particulars: 2.5 µM, library set: Broad Institute DOS, incubation time: 72 h. The gist of the method: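 P. falciparum NF54 stage V gametocytes (serum-free medium, 0.75% gametocytemia, 1.25% hematocrit) were exposed to compound at 2.5 µM for 72 hr at 37°C under low oxygen, then stained with MitoTracker Red CMXRos and saponin for one to two hours. Red particles of 20–70 µm2 in one field per well were counted, and the viability index is that count scaled to the plate mean of solvent-only wells.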
As to `CO[C@@H]1CN(C)C(=O)c2ccc(NC(=O)c3cccnc3)cc2OC[C@@H](C)N(CC2CCCCC2)C[C@H]1C`, the viability index came to 1.08 ± 0.019.

Turning to `CCC(=O)N1C[C@]2(CCN(Cc3ccccc3Cl)CC2)c2c([nH]c3cc(OC)ccc23)[C@@H]1CO`, the viability index was 0.987 ± 0.03.

On to `C[C@H]1CN([C@@H](C)CO)C(=O)c2ccccc2-c2ccccc2CO[C@H]1CN(C)Cc1cccc(C(=O)O)c1`, for which the viability index is 0.958 ± 0.034.

`C/C=C/c1ccc([C@H]2[C@H]3CNC[C@@H]2N3C(=O)NCCC)cc1` displayed a viability index of 1.02 ± 0.025. `C/C=C/c1ccc2n(c1=O)C[C@@H]1[C@@H](CO)[C@H](C(=O)N(C)C)N(C(=O)CC)[C@H]21.C/C=C\c1ccc2n(c1=O)C[C@@H]1[C@@H](CO)[C@H](C(=O)N(C)C)N(C(=O)CC)[C@H]21` displayed a viability index of 1.05 ± 0.064. As for `O=C(C[C@@H]1C[C@@H]2c3cc(NC(=O)C4CCOCC4)ccc3O[C@@H]2[C@H](CO)O1)NCc1cccnc1`, the figure is 1.09 ± 0.024. As for `O=C(c1cccc(F)c1)N1CC(=O)N2[C@H](CO)[C@@H](c3ccc(/C=C/c4ccccc4)cc3)[C@H]2C1`, the figure is 1.01 ± 0.017; as for `O=C(C[C@H]1CC[C@@H](NC(=O)Nc2ccc(C(F)(F)F)cc2)[C@H](CO)O1)NCc1cccc(F)c1`, 0.953 ± 0.14.

`O=C(C[C@H]1CC[C@@H](NC(=O)c2cccnc2)[C@@H](CO)O1)NCc1ccc(Cl)c(Cl)c1` registered a viability index of 0.969 ± 0.05. As for `CNC[C@H]1OCCCC[C@H](C)Oc2ccc(NS(=O)(=O)c3ccc(F)cc3)cc2C(=O)N([C@@H](C)CO)C[C@H]1C`, the figure is 1.04 ± 0.03; as for `CO[C@@H]1CN(C)C(=O)c2ccc(NC(=O)Nc3ccccc3Cl)cc2OC[C@@H](C)NC[C@@H]1C`, 1.08 ± 0.073. `CN(C)C(=O)C[C@@H]1C[C@@H]2c3cc(NC(=O)Nc4ccc(F)cc4)ccc3O[C@@H]2[C@@H](CO)O1` showed a viability index of 1.05 ± 0.031. As for `CO[C@H](CN(C)Cc1ccc2c(c1)OCO2)[C@H](C)CN(C(=O)Nc1ccc(F)cc1)[C@H](C)CO`, the figure is 1.0076 ± 0.00049; as for `CN1C(=O)c2cc(NS(=O)(=O)c3cccc(F)c3)ccc2OC[C@@H]2O[C@@H](CC(=O)NCCN3CCCCC3)CC[C@H]21`, 0.973 ± 0.011. With `O=S(=O)(c1cccs1)N1CCCCN2[C@H](CO)[C@@H](c3ccc(/C=C/c4ccccc4)cc3)[C@@H]2C1`, the viability index worked out at 1.06 ± 0.029. As for `C[C@@H]1CCCCO[C@@H](CN(C)C(=O)CCC(F)(F)F)[C@@H](C)CN([C@H](C)CO)C(=O)c2cc(NC(=O)C3CCCCC3)ccc2O1`, the figure is 1.05 ± 0.032; as for `Cc1cc(C(=O)Nc2ccc3c(c2)C(=O)N(C)[C@H]2CC[C@@H](CC(=O)O)O[C@@H]2CO3)no1`, 1.02 ± 0.021; as for `CO[C@H]1CC[C@@H]2CCOc3c(C#N)cccc3C(=O)N(C)C[C@H](OC)[C@@H](C)C(=O)N(C)C[C@@H]1O2`, 1.01 ± 0.033. The result for `O=C(C1CCOCC1)N1CC[C@H]2[C@H](CO)Nc3ccc(-c4cccc(F)c4)cc3[C@H]21` reads 1.04 ± 0.056; that for `C[C@@H]1CN([C@@H](C)CO)C(=O)c2cc(NS(=O)(=O)c3ccc(Cl)cc3)ccc2O[C@@H](C)CCCCO[C@@H]1CN(C)C(=O)CCCN(C)C`, 1.13 ± 0.13.

For `COc1ccc2c3c([nH]c2c1)[C@@H](CO)N(Cc1ccccn1)C[C@]31CN(Cc2cccc(F)c2)C1`, the viability index amounted to 0.935 ± 0.16. On to `O=C(C[C@@H]1CC[C@@H]2[C@H](COC[C@H](O)CN2C(=O)Nc2ccc(Cl)cc2)O1)NCC1CCCCC1`, for which the viability index was determined as 1.11 ± 0.12. As for `O=C(c1cnccn1)N1CC(=O)N2[C@H](CO)[C@H](c3ccc(C#CC4CC4)cc3)[C@H]2C1`, the figure is 1.015 ± 0.0038. As for `CO[C@@H]1CN(C)C(=O)c2cc(NC(=O)c3nc4ccccc4s3)ccc2OC[C@@H](C)NC[C@@H]1C`, the figure is 1.145 ± 0.0081; as for `C[C@H](O)C#Cc1ccc([C@H]2[C@@H](CO)N3CCCCN(CC4CC4)C[C@H]23)cc1`, 1.06 ± 0.02; as for `C[C@@H]1CCCCO[C@H](CN(C)Cc2ccc(Cl)c(Cl)c2)[C@@H](C)CN([C@H](C)CO)C(=O)c2cc(NS(=O)(=O)c3cccs3)ccc2O1`, 0.985 ± 0.089. The result for `Cc1noc(C)c1NC(=O)N(C)C[C@H]1OCCCC[C@@H](C)Oc2ccc(NC(=O)Nc3ccc(C(F)(F)F)cc3)cc2C(=O)N([C@@H](C)CO)C[C@H]1C` reads 1.01 ± 0.025; that for `CCCNC(=O)N1C[C@@H](O)COC[C@@H]2O[C@@H](CC(=O)OC)CC[C@H]21`, 1.03 ± 0.085; that for `C[C@H](CO)N1C[C@H](C)[C@@H](CN(C)S(=O)(=O)c2ccccc2)Oc2ccc(NC(=O)C3CC3)cc2C1=O`, 0.904 ± 0.08. Consider `O=S(=O)(c1ccc(F)cc1)N1CCCCN2[C@H](C1)[C@@H](c1ccc(-c3cncnc3)cc1)[C@@H]2CO`, for which the viability index stood at 0.995 ± 0.025.

`COc1ccccc1NC(=O)N1C[C@@H]2N[C@H](C1)[C@H]2c1ccc(-c2cccc(C#N)c2)cc1` returned a viability index of 1.03 ± 0.061. As for `C[C@H]1CN([C@@H](C)CO)C(=O)c2cc(N(C)C)ccc2O[C@H]1CN(C)CC1CCCCC1`, the figure is 1.04 ± 0.081; as for `COc1ccc(NC(=O)N2CCCCN3[C@H](C2)[C@H](c2ccc(-c4ccccc4F)cc2)[C@@H]3CO)cc1`, 0.969 ± 0.046; as for `O=C(c1ccccc1F)N1CC2(C1)[C@H](c1ccccc1)[C@H](CO)N2CC1CCOCC1`, 1.028 ± 0.0081. Take `Cc1ccccc1-c1ccccc1[C@H]1[C@@H](C#N)N(C(=O)c2ccc(F)cc2)[C@@H]1CO`: the viability index amounted to 1.17 ± 0.067. The result for `CN1C(=O)c2cc(NC(=O)c3cnccn3)ccc2OC[C@@H]2O[C@H](CC(=O)NCC3CCCCC3)CC[C@@H]21` reads 1.03 ± 0.037; that for `CCCC(=O)Nc1ccc2c(c1)C(=O)N(C)[C@@H]1CC[C@@H](CC(=O)N3CCCCC3)O[C@H]1CO2`, 1.15 ± 0.075. With `CC(C)C#Cc1ccc([C@@H]2[C@H](C#N)N(C(=O)c3cccc(F)c3)[C@H]2CO)cc1`, the viability index is 1.032 ± 0.0094. As for `COCC(=O)N1C[C@@]2(C1)CN(Cc1ccccc1F)[C@@H](CO)c1[nH]c3cc(OC)ccc3c21`, the figure is 0.984 ± 0.09. The result for `C[C@@H](NC(=O)C[C@@H]1C[C@H]2c3cc(NS(=O)(=O)c4ccc(F)cc4)ccc3O[C@H]2[C@@H](CO)O1)c1ccccc1` reads 1.03 ± 0.085.

In turn, `COc1cccc(C(=O)Nc2ccc3c(c2)C(=O)N(C)[C@@H]2CC[C@H](CC(=O)N[C@H](C)c4ccccc4)O[C@@H]2CO3)c1` yielded a viability index of 1.12 ± 0.081. For the compound `CCCC(=O)N1CC[C@@]2(CC1)CN([C@@H](CO)c1[nH]c3cc(OC)ccc3c21)C(=O)C1CCC1`, the viability index is 1.04 ± 0.037. The compound `O=C(c1ccncc1)N1C[C@H]2[C@@H](c3ccccc31)[C@H](CO)N2C(=O)CN1CCOCC1` registered a viability index of 1.06 ± 0.09. The result for `C[C@@H]1CN([C@@H](C)CO)C(=O)c2cc(NS(C)(=O)=O)ccc2O[C@H]1CN(C)C` reads 1.03 ± 0.068; that for `CCC(=O)N1[C@@H](CO)[C@@H](c2ccc(-c3cccc(OC)c3)cc2)C12CN(C(C)=O)C2`, 1 ± 0.049. As for `CC(=O)N1CC2(C1)[C@H](c1ccc(-c3ccc(F)cc3)cc1)[C@@H](CO)N2CC1CC1`, the figure is 1.11 ± 0.033; as for `Fc1ccc(-c2ccc([C@H]3[C@@H]4CN(Cc5ccccc5)C[C@H]3N4)cc2)cc1`, 0.952 ± 0.025; as for `C[C@@H]1CN([C@H](C)CO)S(=O)(=O)c2ccc(-c3ccncc3)cc2O[C@@H]1CN(C)S(C)(=O)=O`, 1.06 ± 0.062. As for `CO[C@H]1CC[C@H]2CCN(C)C(=O)CC3(CCCCC3)CN(C)C(=O)c3cc(C#N)ccc3OC[C@H]1O2`, the figure is 1.03 ± 0.028; as for `COc1ccc(NC(=O)N2CCCCN3[C@H](CO)[C@@H](c4ccc(-c5ccccc5F)cc4)[C@@H]3C2)cc1`, 1.04 ± 0.016. For the compound `C/C=C/c1cccc(-c2nc(C(=O)Nc3nccs3)cc3c2[C@@H](CCO)N(C(=O)NC(C)C)C3)c1`, the viability index was found to be 0.867 ± 0.035. As for `O=C(c1ccccn1)N1CC2(C1)[C@@H](c1ccccc1)[C@@H](CO)N2C(=O)C1CCCCC1`, the figure is 1.041 ± 0.0089; as for `O=C(CN1CCOCC1)NC[C@@H]1N[C@@H](CO)[C@H]1c1ccc(-c2ccccc2)cc1`, 1.02 ± 0.069. As for `CN(C)C(=O)c1ccc(-c2ccc([C@H]3[C@@H]4CN(C(=O)c5ccccn5)C[C@H]3N4)cc2)cc1`, the figure is 1.02 ± 0.17; as for `CC(C)CC#Cc1ccc([C@H]2[C@H](CO)N3CCCCN(C(=O)Nc4ccccc4)C[C@@H]23)cc1`, 0.935 ± 0.034; as for `CNC(=O)C[C@H]1CC[C@H]2[C@@H](COC[C@@H](O)CN2Cc2ccccc2F)O1`, 1.01 ± 0.041. In the case of `C/C=C/c1ccc2n(c1=O)C[C@@H]1[C@@H](CO)[C@H](C(=O)N3CCOCC3)N(Cc3ccccc3)[C@H]21.C/C=C\c1ccc2n(c1=O)C[C@@H]1[C@@H](CO)[C@H](C(=O)N3CCOCC3)N(Cc3ccccc3)[C@H]21`, the viability index was 1.03 ± 0.065. As for `CO[C@@H]1CN(C)C(=O)c2cc(NC(=O)Nc3cccc(Cl)c3)ccc2OC[C@H](C)N(C(=O)Nc2c(C)noc2C)C[C@H]1C`, the figure is 1.07 ± 0.019; as for `COc1ccc2c3c([nH]c2c1)[C@@H](CO)N(Cc1ccncc1)C[C@]31CN(Cc2ccc(cc2)-c2ccccn2)C1`, 0.908 ± 0.055.

`Cc1noc(C)c1S(=O)(=O)Nc1ccc2c(c1)C(=O)N([C@@H](C)CO)C[C@@H](C)[C@@H](CN(C)C(=O)Nc1cccc3ccccc13)OCCCC[C@H](C)O2` showed a viability index of 0.828 ± 0.11. As for `CCc1nc(N2[C@H](C#N)[C@@H](c3ccccc3-c3ccc(F)cc3)[C@H]2CO)sc1C`, the viability index worked out at 1.06 ± 0.095. The result for `CO[C@H]1CN(C)C(=O)c2cc(NC(=O)C3CCOCC3)ccc2OC[C@@H](C)NC[C@H]1C` reads 1 ± 0.057; that for `COCC#Cc1ccc([C@@H]2[C@@H](CO)N3C(=O)CN(C(=O)C4CCCCC4)C[C@@H]23)cc1`, 1.09 ± 0.025. Turning to `CO[C@H]1CN(C)C(=O)c2cc(NC(=O)Nc3ccccc3F)ccc2OC[C@@H](C)N(CCC(F)(F)F)C[C@@H]1C`, the viability index turned out to be 0.957 ± 0.035. As for `COc1ccccc1CN1[C@@H]2c3cccc(=O)n3C[C@H]1[C@H](CO)[C@H]2C(=O)N1CCc2ccccc2C1`, the figure is 1.07 ± 0.055; as for `Cc1ccccc1-c1ccc([C@@H]2[C@@H](CO)N3C(=O)CN(S(C)(=O)=O)C[C@H]23)cc1`, 1.09 ± 0.045. The result for `O=C(CN1CCOCC1)N1CC(=O)N2[C@H](C1)[C@H](c1ccc(-c3cccc(F)c3)cc1)[C@@H]2CO` reads 1.04 ± 0.075. Compound `O=C(C[C@@H]1CC[C@@H](NS(=O)(=O)c2ccccc2F)[C@@H](CO)O1)NCCCN1CCOCC1` displayed a viability index of 1 ± 0.13.
